Laboratory results as given in PubChem BioAssay AID463173 (ICCB-Longwood Screening Facility, Harvard Medical School, 2010).
In all, about 52,000 compounds went through this assay and about 1,700 (3.3%) were called active. No stated cut-off is given here; in the data, active means survival mostly below about 52% (no sharp cut-off); inactive means mostly above about 56%. Some of the results follow.

test system: Wild type; test: S. aureus survival, RN4220 and DeltatarO strains – OD600, teichoic acid synthesis inhibitors, primary screen (AID 463173); conditions: S. aureus RN4220 wild type/DeltatarO growth, OD600, 18 h, active compounds read low, screened at 18.75 µg/mL (by protocol)

Row | Compound | survival
1 | Cc1ccc(NS(=O)(=O)c2c(C(=O)N3CCC(C)CC3)c(C)n(C)c2C)cc1Cl | inactive: 131%
2 | COc1ccccc1N1CCN(C(=O)c2cc3c(=O)n(Cc4ccco4)ccc3nc2C)CC1 | inactive: 73%
3 | N#Cc1nc(-c2ccc(COc3ccc(Cl)cc3)o2)oc1N1CCN(c2ccccc2)CC1 | inactive: 85%
4 | CCOC(=O)c1c(S(=O)(=O)N2CCCC(C(=O)N3CCN(c4cccc(C)c4C)CC3)C2)c(C)n(C)c1C (configuration not stated) | inactive: 70%
5 | c1ccc(-c2nc(N3CCCCC3)nc3ccccc23)cc1 | inactive: 99%
6 | COc1cccc(CNCC(=O)N2C(C)CCCC2C)c1 (configuration not stated) | inactive: 102%
7 | O=C(CSc1nc2c(oc3ccccc32)c(=O)n1-c1ccccc1F)Nc1ccccc1 | inactive: 139%
8 | Cc1ccc(CN2CCSc3ccc(C(=O)N4CCN(c5cc(C)ccc5C)CC4)cc32)cc1 | inactive: 20%
9 | CC(=O)Nc1ccc(C(=O)CSc2nc3ccccc3n2CC(=O)N2CCCC2)cc1 | inactive: 102%
10 | O=C(CSc1nnnn1Cc1ccccc1)NCCc1ccccc1 | inactive: 118%
11 | CC(C)CN1CCc2nc(N3CCN(C)CC3)ncc2C1 | inactive: 84%
12 | Cn1c(=O)cc(SCC(=O)N2CCN(c3ccc(F)cc3)CC2)c2ccc(Cl)cc21 | inactive: 84%
13 | Cc1ccc(Nc2c3c(nc4nncn24)CCC3)cc1C | inactive: 76%
14 | O=C(COc1ccccc1)Nc1ncn[nH]1 | inactive: 113%
15 | O=C(CN1C(=O)COc2ccc(S(=O)(=O)N3CCOCC3)cc21)NCc1ccc(F)cc1 | inactive: 94%
16 | CCOC(=O)c1c(C)oc2nc(C)nc(NCc3ccc(Cl)cc3)c12 | inactive: 90%
17 | CCn1cc(C(=O)N2CCN(c3ccccc3F)CC2)c(=O)c2cc(S(=O)(=O)N(C)C3CCCCC3)ccc21 | inactive: 83%
18 | COc1cc(NC(=O)c2ccccc2)ccc1NC(=O)c1cc2ccccc2o1 | inactive: 85%
19 | CC(C)NC(=O)c1nc2ccccc2s1 | inactive: 120%

Row | Compound | survival
20 | Cc1cccc(NC(=O)CSc2nc(-c3ccco3)nc3cc(=O)[nH]n23)c1 | inactive: 66%
21 | COc1ccc(-c2cc3ccc(O)c(CN4CCOCC4)c3oc2=O)cc1 | inactive: 89%
22 | CC(=O)N1CCc2cc(Br)cc(S(=O)(=O)N3CCC(C(=O)N(C)c4cc(C)ccc4C)CC3)c21 | inactive: 84%
23 | COc1ccc(-c2ccc3c(N)c(C(=O)NCc4ccc(Cl)cc4)sc3n2)cc1 | inactive: 107%
24 | Cc1ccc(S(=O)(=O)N2CCNCC2)cc1 | inactive: 113%
25 | COC(=O)c1c(SC)nc2ccccc2c1OCc1ccccc1C | inactive: 79%
26 | O=C(CCn1c(=O)c2ccccc2n(Cc2ccc(F)cc2Cl)c1=O)NCc1ccc2c(c1)OCO2 | inactive: 91%
27 | CCc1ccc(NC(=O)C2CCN(S(=O)(=O)c3ccc4[nH]c5c(c4c3)CCCCC5)CC2)cc1 | inactive: 73%
28 | CCOC(=O)C1CCN(C(=O)C2CCN(C3=NS(=O)(=O)C(c4ccc(C)cc4)=C3CC)CC2)CC1 | inactive: 126%
29 | Cc1cccc(C)c1NC(=O)Cn1c(=O)n(CC2CCC(C(=O)NCCc3ccccc3)CC2)c(=O)c2ccccc21 (configuration not stated) | inactive: 143%
30 | CCOC(=O)c1noc2ncnc(Nc3ccc(F)cc3F)c12 | inactive: 127%
31 | Cn1cc(S(=O)(=O)N2CCCCCC2)cc1C(=O)N1CCN(c2cccc(Cl)c2)CC1 | inactive: 54%
32 | CC(=O)c1ccc(S(=O)(=O)Nc2cccc(-c3ccc(N4CCCCC4)nn3)c2)cc1 | inactive: 87%
33 | Cc1ccc(CNC(=O)C2CCN(c3nc4ccccc4n(C)c3=O)CC2)cc1 | inactive: 82%
34 | CCOC(=O)CSc1nc2c(sc3ccccc32)c(=O)n1CCc1ccccc1 | inactive: 75%
35 | O=[N+]([O-])c1cc(-c2nc(-c3ccccc3)no2)ccc1N1CCN(c2ccccc2)CC1 | inactive: 84%
36 | CCCOc1ccc(CNC(=O)C(CC)n2nc(C)c3sc4ccccc4c3c2=O)cc1 (configuration not stated) | inactive: 82%
37 | CCOc1ccc2nc(C)cc(Nc3ccccc3OCC)c2c1 | inactive: 132%
38 | Cc1ccc(Cl)cc1N1CCN(C(=O)CCC(=O)Nc2ccc3nc(N4CCC(C)CC4)cc(C)c3c2)CC1 | inactive: 83%

Row | Compound | survival
39 | Cc1ccc(C(=O)O)cc1Nc1nc2ccccc2n2nnnc12 | inactive: 80%
40 | Cc1ccc(NC(=O)Cn2nnc(-c3nc(-c4ccncc4)no3)c2N)cc1 | inactive: 129%
41 | CC12CN3CC(C)(CN(C1)C3(C)CSc1c[nH]c3ccccc13)C2=O (configuration not stated) | inactive: 108%
42 | O=C(OCc1nc(-c2ccccc2)oc1COC(=O)c1ccco1)c1ccco1 | inactive: 110%
43 | Nc1c(Cl)ncnc1NCCO | inactive: 95%
44 | COCCNC(=O)c1c(C)oc2nc(C)nc(N3CCOCC3)c12 | inactive: 81%
45 | Cc1cccc(-c2cc3nc4c(c(N5CCN(Cc6ccc7c(c6)OCO7)CC5)n3n2)CCCC4)c1 | inactive: 111%
46 | CCOC(=O)c1cccc(NC(=O)c2ccc3c(Cl)c4c(nc3c2)CCC4)c1 | inactive: 77%
47 | O=C(NCCCN1CCN(c2ccc(F)cc2)CC1)Nc1ccc(Cl)cc1 | inactive: 64%
48 | COc1ccc(C2c3c(-c4c(C)cc(C)cc4O)n[nH]c3C(=O)N2Cc2ccco2)cc1 (configuration not stated) | inactive: 15%
49 | COc1cccc(-c2nc(CS(=O)(=O)CC(=O)NCc3ccc(C)cc3)c(C)o2)c1 | inactive: 83%
50 | CCOc1cc(-c2nc3c(c(CC)nn3-c3ccccc3)c3cc(OC)c(OC)cc23)ccc1O | inactive: 87%
51 | Cc1ccc(CN2C(=O)C(O)(c3c[nH]c4ccccc34)c3cc(Cl)ccc32)cc1 (configuration not stated) | active: -11%
52 | Cc1ccc(-c2nnc(SCc3ccccc3C#N)o2)cc1 | inactive: 66%
53 | CC(C)NC(=O)CCSc1ccc(Cl)cc1 | inactive: 117%
54 | Cc1ccc(C)c(NC(=O)Cn2c(=O)n(Cc3ccco3)c(=O)c3oc4ccccc4c32)c1 | inactive: 87%
55 | Cc1ccc2c(c1)NC(c1cccnc1)=NC(c1ccc(F)cc1)=N2 | inactive: 90%
56 | COc1ccc(C(=O)COC(=O)c2cccc(NC(=O)c3ccc(OC)c(OC)c3)c2)cc1 | inactive: 88%
57 | O=C(C1CCCN(S(=O)(=O)Cc2ccccc2)C1)N1CCc2ccccc21 (configuration not stated) | inactive: 100%
